Some of the results follow. Sequences were assembled here from the parent chain. Inactive controls read about 0.05.
B1: TEV protease; numbered along this chain (parent)
chain: MGESLFKGPRDYNPISSSICHLTNESDGHTTSLYGIGFGPFIITNKHLFRRNNGTLVVQSLHGVFKVKDTTTLQQHLVDGRDMIIIRMPKDFPPFPQKLKFREPQREERICLVTTNFQTKSMSSMVSDTSCTFPSGDGIFWKHWIQTKDGQCGSPLVSTRDGFIVGIHSASNFTNTNNYFTSVPKNFMELLTNQEAQQWVSGWRLNADSVLWGGHKVFMVKPEEPFQPVKEATQL

Variants of: B1
Assay: raw area under fraction-flipped curve 0-4 h after induction (AUC4h, not background-subtracted), DNA-recorder readout of cleavage of the substrate (dimensionless); higher = more cleavage of the substrate by the protease variant
Details: temperature: 34 °C; time window: 0-4 h after rhamnose induction
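Note: Bxb1 expression induced with 0.2% (w/v) L-rhamnose at OD600 near 0.5, cultures sampled hourly, flipped fraction per protease–substrate barcode pair counted by paired-end Illumina sequencing.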

Row | Variant | area with substrate ENLYFQD | area with substrate ENLYFQH | area with substrate ENLYFQK | area with substrate ENLYFQL | area with substrate ENLYFQN | area with substrate ENLYFQP | area with substrate ENLYFQR | area with substrate ENLYFQS | area with substrate ENLYFQT | area with substrate ENLYFQY | area with substrate ENLYFQE | area with substrate ENLYFQG | area with substrate ENLYFQI | area with substrate ENLYFQM | area with substrate ENLYFQV | area with substrate ENLYFQW | area with substrate ENLYFQF | area with substrate ENLYFQQ
1 | D161H | 0.0614 | 0.0643 | 0.0614 | 0.0552 | 0.0482 | 0.0619 | 0.0755 | 0.07 | 0.076 | 0.0555 | – | – | – | – | – | – | – | –
2 | P9G | 0.0752 | 0.0711 | – | 0.0642 | 0.0837 | 0.0628 | 0.0645 | 0.0985 | 0.0659 | 0.0732 | 0.0749 | 0.0912 | 0.0679 | 0.0703 | 0.0611 | 0.062 | – | –
3 | G8R | 0.0754 | – | – | – | – | – | – | 0.115 | 0.0523 | – | – | – | – | 0.0692 | – | – | 0.0653 | –
4 | F140A | 0.0617 | – | – | – | 0.0236 | – | 0.0633 | 0.061 | – | 0.0409 | – | 0.0758 | – | – | – | 0.0591 | – | –
5 | S130G | 0.0807 | 0.0837 | 0.0687 | 0.0572 | – | – | 0.0511 | 0.103 | – | 0.0863 | – | 0.0825 | 0.0734 | 0.0945 | 0.0583 | – | – | 0.0872
6 | S18L | 0.0654 | 0.0705 | 0.057 | – | 0.0744 | 0.0474 | 0.0542 | 0.0936 | 0.0602 | 0.0817 | – | 0.0805 | 0.0572 | 0.0708 | 0.0391 | 0.0662 | – | 0.0673
7 | I145Y | 0.0624 | 0.0652 | 0.0658 | 0.0553 | 0.0532 | 0.0524 | 0.0538 | 0.0725 | 0.064 | 0.0569 | 0.0691 | – | 0.0441 | 0.0921 | 0.0557 | – | – | –
8 | K98E | 0.0679 | – | 0.0615 | 0.0678 | – | – | 0.0588 | 0.114 | – | – | – | 0.113 | – | – | – | – | – | –
9 | H76Q | 0.0675 | – | – | – | 0.0777 | – | – | 0.0984 | 0.0704 | 0.0805 | – | 0.0983 | – | 0.0841 | – | – | – | –
10 | P155Y | 0.0424 | – | 0.0413 | – | 0.0566 | – | 0.0392 | 0.0533 | 0.0554 | 0.0321 | – | 0.0492 | 0.0574 | 0.0569 | 0.048 | 0.0478 | – | –
11 | S127Y | 0.0622 | – | – | 0.0681 | 0.0822 | 0.0573 | – | 0.114 | 0.072 | – | – | 0.0897 | 0.0609 | 0.104 | 0.0635 | 0.0724 | – | –
12 | I139F | 0.0694 | – | 0.0199 | 0.0748 | 0.0779 | – | 0.0606 | 0.115 | 0.0697 | 0.0666 | 0.0753 | 0.0839 | 0.0489 | 0.0882 | – | – | – | –
13 | I86E | 0.0394 | 0.0395 | 0.0493 | 0.0468 | – | – | 0.0407 | 0.0373 | 0.0343 | – | – | 0.0395 | 0.0334 | – | 0.0438 | – | 0.0274 | 0.0129
14 | F180P | – | – | – | – | 0.0858 | – | – | 0.056 | 0.0522 | – | – | 0.0499 | 0.0632 | – | 0.0328 | 0.0478 | 0.0468 | –
15 | M88I | – | – | 0.0346 | 0.0735 | 0.085 | – | 0.0615 | 0.0964 | 0.0554 | 0.0775 | – | – | 0.056 | – | 0.0639 | – | 0.0699 | –
16 | F133Q | – | 0.0818 | – | 0.0733 | 0.0695 | – | – | 0.118 | 0.0712 | – | – | 0.118 | 0.0137 | 0.0991 | 0.0516 | 0.0748 | 0.0735 | 0.0752
17 | P9V | – | 0.0417 | – | – | 0.0514 | 0.0744 | 0.0617 | 0.108 | – | 0.0703 | – | 0.0958 | – | 0.0956 | 0.0638 | 0.0709 | 0.0895 | –

Row | Variant | area with substrate ENLYFQD | area with substrate ENLYFQH | area with substrate ENLYFQK | area with substrate ENLYFQL | area with substrate ENLYFQN | area with substrate ENLYFQP | area with substrate ENLYFQR | area with substrate ENLYFQS | area with substrate ENLYFQT | area with substrate ENLYFQY | area with substrate ENLYFQE | area with substrate ENLYFQG | area with substrate ENLYFQI | area with substrate ENLYFQM | area with substrate ENLYFQV | area with substrate ENLYFQW | area with substrate ENLYFQF | area with substrate ENLYFQQ
18 | S130C | – | – | – | 0.0699 | – | – | – | 0.122 | 0.0873 | 0.112 | – | – | 0.067 | – | – | – | 0.115 | 0.104
19 | T119H | – | – | – | – | 0.102 | 0.0509 | 0.082 | 0.108 | 0.0622 | – | – | 0.113 | – | – | – | 0.0686 | – | –
20 | G202L | – | 0.0549 | 0.0612 | 0.0665 | 0.0451 | 0.0585 | 0.0622 | 0.0642 | – | 0.0511 | – | 0.0676 | – | 0.0604 | – | 0.0501 | – | –
21 | S154G | – | – | 0.0619 | 0.0493 | 0.0692 | – | 0.0604 | 0.0912 | 0.0614 | – | – | 0.0873 | 0.0571 | 0.0671 | 0.049 | 0.0729 | – | –
22 | E25T | – | 0.0813 | 0.061 | 0.0678 | 0.0863 | – | 0.0513 | 0.11 | – | 0.0862 | – | 0.0811 | 0.0439 | 0.0074 | – | 0.0695 | – | –
23 | H143L | – | – | 0.0608 | 0.0514 | 0.0561 | 0.0433 | 0.0524 | 0.062 | – | 0.0662 | – | 0.0617 | 0.0533 | 0.0485 | – | 0.0446 | – | 0.0602
24 | I85D | – | – | 0.0321 | 0.047 | – | – | – | 0.0439 | 0.0612 | 0.0349 | – | 0.0675 | – | 0.0573 | 0.0337 | 0.0283 | – | –
25 | C131S | – | 0.0978 | 0.039 | – | – | – | – | 0.115 | 0.0602 | – | – | 0.122 | 0.0659 | 0.0862 | – | – | – | –
26 | Q234H | – | – | 0.0653 | 0.0555 | 0.0909 | 0.0677 | 0.0593 | 0.106 | 0.0732 | 0.0815 | – | 0.0671 | 0.0384 | – | – | – | – | –
27 | K148F | – | 0.0749 | – | – | 0.0786 | 0.0616 | 0.0595 | 0.1 | 0.0425 | 0.0941 | – | – | – | – | – | 0.0653 | – | –
28 | R160H | – | 0.104 | – | 0.0691 | 0.0848 | – | – | 0.111 | 0.0717 | 0.0736 | – | – | 0.0572 | – | – | – | – | –
29 | T132R | – | 0.0761 | – | 0.0485 | 0.0437 | – | – | 0.0569 | 0.0561 | – | – | – | 0.004 | – | – | – | – | 0.0206
30 | I42H | – | 0.0338 | 0.0592 | 0.0421 | 0.0388 | 0.0404 | 0.0543 | 0.0484 | 0.0537 | 0.0485 | – | – | – | – | 0.036 | 0.0397 | – | –
31 | G136M | – | 0.109 | 0.0419 | 0.0366 | 0.104 | – | 0.0505 | 0.116 | 0.0714 | 0.088 | – | – | 0.0604 | 0.0956 | – | 0.0771 | – | –
32 | E108S | – | 0.0593 | 0.052 | 0.0415 | 0.0618 | – | 0.0598 | 0.0678 | 0.0532 | – | – | – | – | – | – | 0.0476 | – | 0.0485
33 | S182A | – | – | 0.0648 | 0.0637 | – | – | 0.0613 | 0.12 | – | – | – | – | – | – | 0.0705 | 0.0671 | – | –
34 | Q97I | – | – | – | 0.0666 | 0.0809 | – | 0.0355 | 0.0769 | 0.0678 | 0.061 | – | – | – | – | 0.0601 | – | – | –
